Laboratory results: the supplement of paper PMC4604168 (melanoma cell lines)
Some of the results follow. Repeats are few or missing, and single values can be far off.

Test system: SkMel30
Assay: cell count relative to DMSO control; melanoma cells; higher = more viable cells
Settings: library dose: low library concentration; 72 h
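Further: cell number obtained by counting DAPI-stained nuclei in high-throughput microscope images with image analysis software, screen run in 1,536-well plates.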

Row | SMILES | cell count [%]
1 | Nc1ccn([C@@H]2O[C@H](CO)[C@@H](O)C2(F)F)c(=O)n1 [gemcitabine] + O=C1NC(=O)/C(=C/c2ccc(-c3ccc(F)cc3O)o2)S1 [AS252424] (first compound 0.0004 µM, partner dose 1 µM) | 130
2 | Nc1ccn([C@@H]2O[C@H](CO)[C@@H](O)C2(F)F)c(=O)n1 [gemcitabine] + CC1(C)NC(=O)N(c2ccc([N+](=O)[O-])c(C(F)(F)F)c2)C1=O [nilutamide] (first compound 0.0004 µM, partner dose 1 µM) | 120
3 | Nc1ncn([C@H]2C[C@H](O)[C@@H](CO)O2)c(=O)n1 [decitabine] + NCC(=O)Nc1ccc(-n2nc(C(F)(F)F)cc2-c2ccc3c(ccc4ccccc43)c2)cc1 [OSU03012] (first compound 0.1 µM, partner dose 1 µM) | 60.6
4 | Nc1ccn([C@@H]2O[C@H](CO)[C@@H](O)C2(F)F)c(=O)n1 [gemcitabine] + CC(C)CCN1c2nc(Nc3cc(F)c(O)c(F)c3)ncc2N(C)C(=O)C1C [BID1870] (first compound 0.0004 µM, partner dose 0.2 µM) | 87.6
5 | CC(=O)c1c(C)c2cnc(Nc3ccc(N4CCNCC4)cn3)nc2n(C2CCCC2)c1=O [palbociclib] + COc1cc2c(Oc3ccc4[nH]c(C)cc4c3F)ncnc2cc1OCCCN1CCCC1 [cediranib] (first compound 0.04 µM, partner dose 0.4 µM) | 90.7
6 | Nc1nc(F)nc2c1ncn2[C@@H]1O[C@H](CO)[C@@H](O)[C@@H]1O [fludarabine] + O=C(O)C(=O)Nc1sc2c(c1C(=O)O)CCNC2 [TCS401] (first compound 0.2 µM, partner dose 1.66667 µM) | 28.4
7 | CC(=O)c1c(C)c2cnc(Nc3ccc(N4CCNCC4)cn3)nc2n(C2CCCC2)c1=O [palbociclib] + Cn1cc(/C=C2\C(=O)Nc3cccnc32)c2ccccc21 [GW441756] (first compound 0.04 µM, partner dose 0.4 µM) | 64.3
8 | Nc1ccn([C@@H]2O[C@H](CO)[C@@H](O)C2(F)F)c(=O)n1 [gemcitabine] + Oc1nc(-c2ccc(C(F)(F)F)cc2)nc2c1CSCC2 [XAV939] (first compound 0.0004 µM, partner dose 2 µM) | 119
9 | CC(=O)O[C@@]12CO[C@@H]1C[C@H](O)[C@@]1(C)C(=O)[C@H](O)C3=C(C)[C@@H](OC(=O)[C@H](O)[C@@H](NC(=O)OC(C)(C)C)c4ccccc4)C[C@@](O)([C@@H](OC(=O)c4ccccc4)[C@H]21)C3(C)C [Docetaxel] + Cn1c(=O)n(-c2ccc(C(C)(C)C#N)cc2)c2c3cc(-c4cnc5ccccc5c4)ccc3ncc21 [NVP-BEZ235] (first compound 0.0001 µM, partner dose 0.004 µM) | 36.9
10 | CC(=O)c1c(C)c2cnc(Nc3ccc(N4CCNCC4)cn3)nc2n(C2CCCC2)c1=O [palbociclib] + Cc1cc([N+](=O)[O-])ccc1NS(=O)(=O)c1cc(Cl)ccc1Cl [FH535] (first compound 0.04 µM, partner dose 1 µM) | 60.6
11 | CC(=O)O[C@@]12CO[C@@H]1C[C@H](O)[C@@]1(C)C(=O)[C@H](O)C3=C(C)[C@@H](OC(=O)[C@H](O)[C@@H](NC(=O)OC(C)(C)C)c4ccccc4)C[C@@](O)([C@@H](OC(=O)c4ccccc4)[C@H]21)C3(C)C [Docetaxel] + N#Cc1c(O)c2c(-c3ccc(-c4ccccc4O)cc3)csc2[nH]c1=O [A769662] (first compound 0.0001 µM, partner dose 2 µM) | 37.3
12 | CC(=O)O[C@@]12CO[C@@H]1C[C@H](O)[C@@]1(C)C(=O)[C@H](O)C3=C(C)[C@@H](OC(=O)[C@H](O)[C@@H](NC(=O)OC(C)(C)C)c4ccccc4)C[C@@](O)([C@@H](OC(=O)c4ccccc4)[C@H]21)C3(C)C [Docetaxel] + CN(C)S(=O)(=O)c1ccc2c(c1)/C(=C/c1cc3c([nH]1)CCCC3)C(=O)N2 [SU6656] (first compound 0.0001 µM, partner dose 0.4 µM) | 31.5
13 | Nc1ncn([C@H]2C[C@H](O)[C@@H](CO)O2)c(=O)n1 [decitabine] + CN(NC(=O)CC(=O)NN(C)C(=S)c1ccccc1)C(=S)c1ccccc1 [STA4783] (first compound 0.1 µM, partner dose 0.006 µM) | 104
14 | CC(=O)c1c(C)c2cnc(Nc3ccc(N4CCNCC4)cn3)nc2n(C2CCCC2)c1=O [palbociclib] + NCC(=O)Nc1ccc(-n2nc(C(F)(F)F)cc2-c2ccc3c(ccc4ccccc43)c2)cc1 [OSU03012] (first compound 0.04 µM, partner dose 1 µM) | 54.8
15 | CC(=O)O[C@@]12CO[C@@H]1C[C@H](O)[C@@]1(C)C(=O)[C@H](O)C3=C(C)[C@@H](OC(=O)[C@H](O)[C@@H](NC(=O)OC(C)(C)C)c4ccccc4)C[C@@](O)([C@@H](OC(=O)c4ccccc4)[C@H]21)C3(C)C [Docetaxel] + CC(C)CCN1c2nc(Nc3cc(F)c(O)c(F)c3)ncc2N(C)C(=O)C1C [BID1870] (first compound 0.0001 µM, partner dose 0.2 µM) | 26.3
16 | CC(=O)c1c(C)c2cnc(Nc3ccc(N4CCNCC4)cn3)nc2n(C2CCCC2)c1=O [palbociclib] + O=C(CCCCCCC(=O)Nc1ccccc1)NO [vorinostat] (first compound 0.04 µM, partner dose 0.08 µM) | 77.5
17 | CC(=O)c1c(C)c2cnc(Nc3ccc(N4CCNCC4)cn3)nc2n(C2CCCC2)c1=O [palbociclib] + CC1(C)NC(=O)N(c2ccc([N+](=O)[O-])c(C(F)(F)F)c2)C1=O [nilutamide] (first compound 0.04 µM, partner dose 1 µM) | 73.5
18 | Nc1ncn([C@H]2C[C@H](O)[C@@H](CO)O2)c(=O)n1 [decitabine] + O=C(O)c1ccc(-c2c[nH]c3ncc(-c4ccccc4)cc23)cc1C1CCCC1 [GSK650394] (first compound 0.1 µM, partner dose 0.16 µM) | 128
19 | CC(=O)O[C@@]12CO[C@@H]1C[C@H](O)[C@@]1(C)C(=O)[C@H](O)C3=C(C)[C@@H](OC(=O)[C@H](O)[C@@H](NC(=O)OC(C)(C)C)c4ccccc4)C[C@@](O)([C@@H](OC(=O)c4ccccc4)[C@H]21)C3(C)C [Docetaxel] + C=CCn1c(=O)c2cnc(Nc3ccc(N4CCN(C)CC4)cc3)nc2n1-c1cccc(C(C)(C)O)n1 [MK1775] (first compound 0.0001 µM, partner dose 0.02 µM) | 32.9
20 | Nc1nc(F)nc2c1ncn2[C@@H]1O[C@H](CO)[C@@H](O)[C@@H]1O [fludarabine] + Cc1cc([N+](=O)[O-])ccc1NS(=O)(=O)c1cc(Cl)ccc1Cl [FH535] (first compound 0.2 µM, partner dose 1 µM) | 12.3
21 | CC(=O)O[C@@]12CO[C@@H]1C[C@H](O)[C@@]1(C)C(=O)[C@H](O)C3=C(C)[C@@H](OC(=O)[C@H](O)[C@@H](NC(=O)OC(C)(C)C)c4ccccc4)C[C@@](O)([C@@H](OC(=O)c4ccccc4)[C@H]21)C3(C)C [Docetaxel] + O=S(=O)(c1ccccc1)N(CC(F)(F)F)c1ccc(C(O)(C(F)(F)F)C(F)(F)F)cc1 [T0901317] (first compound 0.0001 µM, partner dose 1.4 µM) | 37
22 | CC(=O)c1c(C)c2cnc(Nc3ccc(N4CCNCC4)cn3)nc2n(C2CCCC2)c1=O [palbociclib] + CC(C)(C)c1cnc(CSc2cnc(NC(=O)C3CCNCC3)s2)o1 [SNS-032] (first compound 0.04 µM, partner dose 0.01 µM) | 90.2
23 | CC(=O)O[C@@]12CO[C@@H]1C[C@H](O)[C@@]1(C)C(=O)[C@H](O)C3=C(C)[C@@H](OC(=O)[C@H](O)[C@@H](NC(=O)OC(C)(C)C)c4ccccc4)C[C@@](O)([C@@H](OC(=O)c4ccccc4)[C@H]21)C3(C)C [Docetaxel] + CO[C@@H]1[C@H](N(C)C(=O)c2ccccc2)C[C@H]2O[C@]1(C)n1c3ccccc3c3c4c(c5c6ccccc6n2c5c31)C(=O)NC4 [Midostaurin] (first compound 0.0001 µM, partner dose 0.08 µM) | 40.2
24 | Nc1nc(F)nc2c1ncn2[C@@H]1O[C@H](CO)[C@@H](O)[C@@H]1O [fludarabine] + COc1ccc2c(c1)CCC1C2CCC2(C)C(NCCCCCCN3C(=O)C=CC3=O)CCC12 [U73122] (first compound 0.2 µM, partner dose 0.4 µM) | 16.3
25 | CC(=O)c1c(C)c2cnc(Nc3ccc(N4CCNCC4)cn3)nc2n(C2CCCC2)c1=O [palbociclib] + Cn1c(Nc2ccc(C(F)(F)F)cc2)nc2cc(Oc3ccnc(-c4ncc(C(F)(F)F)[nH]4)c3)ccc21 [CHIR265] (first compound 0.04 µM, partner dose 0.08 µM) | 39
26 | Nc1ccn([C@@H]2O[C@H](CO)[C@@H](O)C2(F)F)c(=O)n1 [gemcitabine] + O=c1cc(-c2cccc3c2Sc2ccccc2S3)oc(N2CCOCC2)c1 [KU55933] (first compound 0.0004 µM, partner dose 1 µM) | 73.8
